Measurements from IntAct's records for PubMed 28620713.

B1: Angiopoietin-1 receptor (Homo sapiens), Q02763 (parent)
chain: MDSLASLVLCGVSLLLSGTVEGAMDLILINSLPLVSDAETSLTCIASGWRPHEPITIGRDFEALMNQHQDPLEVTQDVTREWAKKVVWKREKASKINGAYFCEGRVRGEAIRIRTMKMRQQASFLPATLTMTVDKGDNVNISFKKVLIKEEDAVIYKNGSFIHSVPRHEVPDILEVHLPHAQPQDAGVYSARYIGGNLFTSAFTRLIVRRCEAQKWGPECNHLCTACMNNGVCHEDTGECICPPGFMGRTCEKACELHTFGRTCKERCSGQEGCKSYVFCLPDPYGCSCATGWKGLQCNEACHPGFYGPDCKLRCSCNNGEMCDRFQGCLCSPGWQGLQCEREGIQRMTPKIVDLPDHIEVNSGKFNPICKASGWPLPTNEEMTLVKPDGTVLHPKDFNHTDHFSVAIFTIHRILPPDSGVWVCSVNTVAGMVEKPFNISVKVLPKPLNAPNVIDTGHNFAVINISSEPYFGDGPIKSKKLLYKPVNHYEAWQHIQVTNEIVTLNYLEPRTEYELCVQLVRRGEGGEGHPGPVRRFTTASIGLPPPRGLNLLPKSQTTLNLTWQPIFPSSEDDFYVEVERRSVQKSDQQNIKVPGNLTSVLLNNLHPREQYVVRARVNTKAQGEWSEDLTAWTLSDILPPQPENIKISNITHSSAVISWTILDGYSISSITIRYKVQGKNEDQHVDVKIKNATITQYQLKGLEPETAYQVDIFAENNIGSSNPAFSHELVTLPESQAPADLGGGKMLLIAILGSAGMTCLTVLLAFLIILQLKRANVQRRMAQAFQNVREEPAVQFNSGTLALNRKVKNNPDPTIYPVLDWNDIKFQDVIGEGNFGQVLKARIKKDGLRMDAAIKRMKEYASKDDHRDFAGELEVLCKLGHHPNIINLLGACEHRGYLYLAIEYAPHGNLLDFLRKSRVLETDPAFAIANSTASTLSSQQLLHFAADVARGMDYLSQKQFIHRDLAARNILVGENYVAKIADFGLSRGQEVYVKKTMGRLPVRWMAIESLNYSVYTTNSDVWSYGVLLWEIVSLGGTPYCGMTCAELYEKLPQGYRLEKPLNCDDEVYDLMRQCWREKPYERPSFAQILVSLNRMLEERKTYVNTTLYEKFTYAGIDCSAEEAA
partner: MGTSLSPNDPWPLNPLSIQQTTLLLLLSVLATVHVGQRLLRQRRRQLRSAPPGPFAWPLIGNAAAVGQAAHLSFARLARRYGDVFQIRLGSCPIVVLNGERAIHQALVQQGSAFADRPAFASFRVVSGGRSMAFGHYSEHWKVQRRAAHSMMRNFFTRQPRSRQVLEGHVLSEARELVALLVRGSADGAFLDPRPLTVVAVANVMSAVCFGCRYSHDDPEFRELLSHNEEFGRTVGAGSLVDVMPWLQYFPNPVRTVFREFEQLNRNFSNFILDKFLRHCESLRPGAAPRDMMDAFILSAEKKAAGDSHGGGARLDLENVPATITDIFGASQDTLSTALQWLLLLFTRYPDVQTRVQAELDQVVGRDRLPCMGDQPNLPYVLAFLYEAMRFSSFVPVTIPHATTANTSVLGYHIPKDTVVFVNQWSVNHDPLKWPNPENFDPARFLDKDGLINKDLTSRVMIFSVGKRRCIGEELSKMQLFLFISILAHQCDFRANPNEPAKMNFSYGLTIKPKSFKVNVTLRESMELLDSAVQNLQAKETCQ

Variants of: B1
Conditions: with cp1b1_human CYP1B1, Q16678

Row | Variant | effect of a mutation on the interaction
1 | E103D | disrupting interaction strength

Variants of: B1
Conditions: with cp1b1_human CYP1B1, Q16678
Remark: another data set of the same source

Row | Variant | effect of a mutation on the interaction
2 | Q214P | disrupting interaction strength

Variants of: B1
Conditions: with cp1b1_human CYP1B1, Q16678
Remark: another data set of the same source

Row | Variant | effect of a mutation on the interaction
3 | G743A | with no effect

Variants of: B1
Conditions: with cp1b1_human CYP1B1, Q16678
Remark: another data set of the same source

Row | Variant | effect of a mutation on the interaction
4 | I148T | decreasing interaction strength

Variants of: B1
Conditions: with cp1b1_human CYP1B1, Q16678
Remark: another data set of the same source

Row | Variant | effect of a mutation on the interaction
5 | I148T | disrupting interaction strength
